Source: PubChem BioAssay AID1745853 (National Center for Advancing Translational Sciences (NCATS), 2022)
The list shows a part of the results. These are further read-outs of the screen, such as a control signal, another cell line or another target. No call is given for them.

Key:
Assay in all cases: Primary Screen for Target Class Profiling of Small Molecule Inhibitors of Methyltransferases
[1] = target: Glycine N-methyltransferase (Homo sapiens) (UniProt Q14749); settings: purified enzyme, MTase-Glo SAH luminescence; measured here: GNMT inhibition; at 40 µM; stronger effect = lower value
Procedure, shortened: (§1)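 Each enzyme was assayed with SAM and its substrate. SAH formation detected by MTase-Glo luminescence; single-point 40 uM screen[…].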

[2] = target: Guanidinoacetate N-methyltransferase (Homo sapiens) (UniProt Q14353); settings: purified enzyme, MTase-Glo SAH luminescence; measured here: GAMT inhibition; at 40 µM; stronger effect = lower value
Procedure, shortened: as §1

[3] = target: Histamine N-methyltransferase (Homo sapiens) (UniProt P50135); settings: purified enzyme, MTase-Glo SAH luminescence; measured here: HNMT inhibition; at 40 µM; stronger effect = lower value
Procedure, shortened: as §1

[4] = target: Nicotinamide N-methyltransferase (Homo sapiens) (UniProt P40261); settings: purified enzyme, MTase-Glo SAH luminescence; measured here: NNMT inhibition; at 40 µM; stronger effect = lower value
Procedure, shortened: as §1

[5] = target: Phenylethanolamine N-methyltransferase (Homo sapiens) (UniProt P11086); settings: purified enzyme, MTase-Glo SAH luminescence; measured here: PNMT inhibition; at 40 µM; stronger effect = lower value
Procedure, shortened: as §1
On the % scale 0 is the no-effect control and ±100 the full control effect.

Row | SMILES | activity change, negative = inhibition [1] [%] | activity change, negative = inhibition [2] [%] | activity change, negative = inhibition [3] [%] | activity change, negative = inhibition [4] [%] | activity change, negative = inhibition [5] [%]
1 | Cn1cccc1-c1noc(C2CCN(C(=O)CCn3cnc4ccccc43)C2)n1 (stereo not given) | -4.42 | 1.1 | -1.53 | -8.46 | -3.94
2 | COc1ccccc1CNC(=O)c1ccc2c(=O)nc3c(-c4ccc(C)cc4)n[nH]n3c2c1 | -9.71 | -0.04 | -5.74 | -5.18 | -8.48
3 | CC(C)NC(=O)Cn1nc2n(C(C)C)c(=O)c3ccc(C(=O)NC4CCCC4)cc3n2c1=O | 1.11 | 3.15 | 2.36 | 1.25 | 3.12
4 | CC1(C)CC2C(O)c3cocc3CC(C)(O)C2C1 (stereo not given) | 3.52 | 1.3 | 9.24 | -10.4 | 5.44
5 | C[S+](=O)([O-])c1ccc(-c2cnc3n[nH]c(-c4ccccc4)c3n2)cc1 | -44 | -28.7 | -46.2 | -32.7 | -14.2
6 | Cc1ccccc1C(CC(=O)N1CCSCC1)c1ccccc1 (stereo not given) | -0.311 | -3.74 | 2.22 | -5.8 | 4.97
7 | Cn1c(=O)c2ccc(C(=O)NC3CCCC3)cc2n2c(SCC(=O)c3ccc(F)cc3)nnc12 | 0 | -3.4 | 4 | -3.64 | -3.84
8 | CCOC(=O)c1ccc(N2C(=O)Cn3cccc3C2C(=O)NC2CCCCC2C)cc1 (stereo not given) | -0.267 | 0 | 3.21 | 10.2 | -1.39
9 | O=C(NCc1ccc(Cl)cc1)c1cc2cccnn2n1 | -4.56 | -2.8 | -1.16 | -8.69 | -1.1
10 | COCCOCc1nc(C2CCCN2C(=O)Nc2ccc(F)cc2F)no1 (stereo not given) | -0.574 | 1.01 | -0.544 | 1.75 | -0.206
11 | O=C(CN1CCCCC1)N1CCCC(N2CCN(Cc3ccc4c(c3)OCO4)CC2)C1 (stereo not given) | 67.8 | -12.4 | -10.6 | -15.4 | -9.46
12 | COc1ccc(C(=O)Cn2nc3n(Cc4ccc(C)cc4)c(=O)c4ccccc4n3c2=O)cc1 | 6.07 | 0.527 | 5.92 | 6.07 | 4.36
13 | O=C(C1CC1)N1C[C@@H]2OCC(=O)N(Cc3ccc(F)cc3)[C@@H]2C1 | -0.115 | -1.94 | -1.55 | -3.17 | 3.71
14 | CC(=O)N1CCCC(c2nc(-c3ccc4nc[nH]c4c3)no2)C1 (stereo not given) | -6.22 | -7.11 | -3.54 | -3.63 | -3.04
15 | CCC(C)NC(=O)Cn1nc2n(c1=O)CCCCC2 (stereo not given) | -2.06 | -4.85 | 0.326 | -8.65 | -3.22
16 | CCCn1c(=O)c2cc(Cl)ccc2n2c(=O)n(CC(=O)c3ccc(OC)c(OC)c3)nc12 | 3.12 | 0 | 9.71 | 7.01 | 3.92
17 | CN1C(=O)c2cc(C(=O)NCCc3ccccc3)nn2CC1(C)C(=O)NCc1ccccc1 (stereo not given) | 4.9 | 0 | 0.21 | 8.51 | 0.82
18 | C[C@](Cc1ccc(O)c(O)c1)(NN)C(=O)O | -53.5 | 2.6 | -1.55 | -8.63 | 1.08
19 | c1ccc(CCN2CCNc3cc(NCc4cccnc4)ncc3C2)cc1 | -8.45 | -3.14 | -89.1 | -19.2 | -25.4
20 | CCOC(=O)c1cc2n(n1)CC(C)(C(=O)NC1CCCCC1)N(c1ccc(Cl)cc1)C2=O (stereo not given) | 1.71 | 4.08 | 3.99 | -2.53 | -1.91
21 | O=C(NCC1CCCCCC1)C1CCN(Cc2ccccc2-c2cccnc2)CC1 | -6.43 | -4.96 | -19.9 | -15.8 | -9.17
22 | CCC(C)NC(=O)c1ccc2c(=O)n(CC(C)C)c3nn(Cc4ccccc4F)c(=O)n3c2c1 (stereo not given) | 2.3 | 0 | 6.87 | -0.527 | 4.7
23 | c1ccc2c(c1)CC(N1CCN(c3cccc4c3OCCO4)CC1)C2 | -8.93 | 1.27 | -0.126 | -11.5 | 2.24
24 | COC(=O)C(Cc1c[nH]c2ccccc12)NC(=O)c1cc(-c2ccc(OC)c(OC)c2)oc1C (stereo not given) | -9.34 | 4.9 | 3.04 | 5.77 | -2.26
25 | CCOc1ccc(S(=O)(=O)n2c(C)nc3ccccc32)cc1 | 3.37 | 2.57 | -2.04 | -15.2 | -4.08
26 | COC[C@H]1CCCN1c1nc(CCN)nc2sc(C)c(C)c12 | -2.83 | -4.69 | -21.7 | -22 | -7.99
27 | CC1(C(=O)NC2CCCC2)Cn2c(ccc2-c2ccccc2)C(=O)N1Cc1ccccc1Cl (stereo not given) | -0.807 | 3.65 | 0.02 | -2.19 | 0.205
28 | C=C1C(OC(C)=O)CCC2(C)CC3(OC)OC(=O)C(C)=C3CC12 (stereo not given) | -3.95 | -11.4 | -7.02 | -24.1 | -1.8
